ChEMBL document CHEMBL4888484, “Replenishing the malaria drug discovery pipeline: Screening and hit evaluation of the MMV Hit Generation Library 1 (HGL1) against asexual blood stage Plasmodium falciparum ,using a nano luciferase reporter read-out” (2022)
The whole screen tested about 150,000 compounds, of which about 540 (0.36%) showed an effect of 50% or more. The list shows a part of the results.

What follows are compounds tested on Plasmodium falciparum (assay: Primary screen in NF54 nanoGlo assay, in single point, at 2uM, 72h; a lower Z score goes with more inhibition). Settings: timepoint 72 hour.
Format: functional, Erythrocyte

SMILES | % Inhibition | Z score
O=C(Cc1cn2ccsc2n1)N1CCS(=O)(=O)C[C@H]1C1CC1 | -8% | 1.31
COCC(=O)N1CC(Cc2nc(-c3cccnc3)no2)C1 | -13% | 1.77
O=C1CCCN1CC1CCN(C(=O)c2c[nH]c(=O)c(Cl)c2)CC1 | 1% | -0.23
O=C(c1noc2c1CCCC2)N1CCc2sc(Cl)cc2C1 | -22% | 2.52
CCC[C@H]1CN(c2nccc(Oc3cccc(C#N)c3)n2)CCN1 | -14% | 1.45
CC[C@H]1COCCN1C(=O)Cn1nc(C)ccc1=O | -1% | 0.1
O=C(C[C@H]1CCCCO1)Nc1cncnc1-n1cccn1 | -5% | 0.79
CC(=O)N1CCN(c2ccc(-c3nc(-c4ccccc4F)no3)cn2)CC1 | 16% | -2.46
O=C(NCC1CCCN2CCCCC12)c1cc(-c2cccnc2)[nH]n1 (stereo unspecified) | 9% | -1.47
CC(C)Cn1ccnc1NC(=O)c1cc2c([nH]1)CCOC2 | -2% | 0.31
Cc1ncc(-c2nc3c(cnn3C)[nH]2)n1C | -3% | 0.38
O=C(c1ccc2nccn2c1)N1CCCC[C@@H]1CO | -7% | 0.95
COc1ccnc(C(=O)N2CCN(C)Cc3ccccc32)c1 | -18% | 2.2
COC(=O)c1cc(S(=O)(=O)N2CCC[C@H]2C(=O)Nc2cccc(C)n2)cn1C | -6% | 1.14
Cc1ccn(Cc2cc(C)on2)c(=O)c1 | -10% | 1.53
Cc1ccc(NC2=NC(N)=NC3(CCCCC3)N2)cc1 | 0% | 0.06
CCOC(=O)c1ccc(NC(=O)CNC(=O)CCC(C)C)c(O)c1 | -9% | 1.76
Fc1ccc(CCN[C@H]2CCc3ncnn3C2)cc1F | -11% | 1.52
CC(C)CCNC(=O)[C@H](C1CCCC1)N1CCN(C(=O)c2ccc(C(F)(F)F)cc2)CC1 | 6% | -0.54
Cc1ccc(-n2c(C)nn(Cc3ccccc3)c2=O)cc1 | 30% | -3.91
CCCCN(CCc1nc(-c2ccc(N(C)C)cc2)no1)C(=O)CC(C)C | -2% | 0.33
CCn1nc(C(=O)Nc2cccc(OCc3cccc(F)c3)c2)ccc1=O | 5% | -0.75

SMILES | % Inhibition | Z score
Cc1cc(C)cc(NC(=O)CC(C)C)c1 | 1% | -0.13
Cc1ccsc1C(=O)N1CC(Oc2ccccc2-c2nc(-c3cnccn3)no2)C1 | -31% | 3.51
CC1CC(C(=O)N2CCN(C(=O)c3ccco3)CC2)CC(=O)N1 (stereo unspecified) | 4% | -0.48
CCC(=O)Nc1ccccc1-c1nc2ccccc2n(CCOc2ccc(F)cc2)c1=O | -8% | 1.54
O=C(NC1CCOC2(CCC2)C1)c1cn(C2CCOC2)nn1 (stereo unspecified) | 5% | -0.59
CCN(CC(=O)Nc1ccc2c(c1)OCCO2)C(=O)c1sccc1C | -11% | 1.02
COC[C@@H]1CC(F)(F)CN1C1CCN(C(=O)c2cc(C)no2)CC1 | -10% | 1.96
Cc1cc(C(=O)Nc2[nH]ncc2-c2ccccc2Br)no1 | -6% | 0.62
Cc1[nH]c2c(F)cc(F)cc2c1CCNC(=O)Cn1cc(N)cn1 | 4% | -0.51
Cn1c(=O)c2ncn(CC(=O)Nc3ccc(C(=O)NC4CCCCC4)cc3)c2n(C)c1=O | 30% | -3.92
Cc1nn(-c2ccc(C(C)(C)C)cc2)c(C)c1[C@@H]1C=C[C@@H](NC(=O)Nc2ccccc2)C1 | 2% | -0.33
CC[C@H](C)Nc1cnc2c(c1)c(NC(=O)C1CCC1)c(C(=O)OC)n2CCc1ccccn1 | 12% | -1.59
Cc1ccccc1[C@H](C)N1CCC2(CC1)COCCO2 | -8% | 1.07
Cc1noc(C)c1CN1CCC[C@H](c2cc(C(N)=O)[nH]n2)C1 | 16% | -1.79
CC1CN(C)CC(C)N1C(=O)c1ccnc(C#N)c1 (stereo unspecified) | -9% | 1.44
Cc1cccc(S(=O)(=O)N2CCOC[C@@]23CCOC3)c1F | -7% | 1
CC(C)c1cc(C(=O)NCc2nnc(C(C)C)n2C)no1 | 7% | -0.76
CCN(CCC(=O)NCCCOC)C(=O)c1ccoc1 | -13% | 1.31
CN(C)Cc1csc(CNC(=O)Nc2cnn3ccccc23)n1 | -6% | 0.66
CN(C(=O)CN1CCn2nc(Cc3ccccc3)cc2C1)c1ccccc1 | 0% | 0.07
C[C@@H]1Oc2ccc(Br)cc2CN(C2CC2)C1=O | 4% | -0.42
